The whole screen tested about 48,000 compounds, of which about 450 (0.94%) were called active. Roughly 19% stayed inconclusive and do not appear here. The call rests on the fitted dose curve; in most records, active means well fitted inhibition curve with a large enough effect; inconclusive means small, poorly fitted or top-dose-only effect; inactive means no such curve, though single readings can be large or run the other way. This is one part of the list.
Assay: Primary qHTS for Identification of Small Molecule Inhibitors of Huntingtin Promoter Activity; further: nearly all actives have a fitted effect of over 50% in size
Settings: HEK293 HTT promoter firefly luciferase reporter (activity 0% = vehicle and -100% = no light), 24 h; series mostly up to 57.5 µM; activity change, negative = inhibition: at the top concentration
Method in brief: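 Firefly luciferase readout (Dual-Glo, 10 min RT) after 24 h, 37 °C compound exposure (final up to 57.5 uM) of HEK293 reporter cells cultured 24 h beforehand; PTC124 at 50 uM final as control inhibitor; activity scaled vehicle 0%, zero RLU -100%.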
Potency means the concentration at half of the fitted maximal effect.

Row | SMILES | Potency | activity change, negative = inhibition
1 | CCc1ccc2nc(N3CCC(C(=O)O)CC3)sc2c1 | active: 10 µM | 
2 | CCSc1nc2n(n1)C(c1ccc(CC)cc1)C(C(=O)Nc1ccccc1OC)=C(C)N2 (stereo not drawn) |  | inactive: 0%
3 | Cc1c(Cl)cccc1-n1c(CCC(=O)O)ccc1-c1cccs1 |  | inactive: -8.14%
4 | CCc1cccc(NC(=O)CN2C(=O)CCc3cc(S(=O)(=O)N4CCOCC4)ccc32)c1 |  | inactive: -23.4%
5 | Cc1ccc2oc(C(=O)Nc3nnc(CC(C)C)s3)cc(=O)c2c1 |  | inactive: -0.729% [at 11.5 µM]
6 | CN1CCCN=C1/C=C/c1cccs1 |  | inactive: -4.63%
7 | CCN(CC)c1cc(C)nc2nc(-c3ccc(C)cc3)nn12 |  | inactive: -5.33%
8 | Cc1ccc(CN2CCSc3ccc(C(=O)Nc4ccc(F)cc4F)cc32)cc1 |  | inactive: 10.1%
9 | CC12CC3CC(C)(C1)CC(N)(C3)C2 |  | inactive
10 | COc1ccc(CCNC(=O)C(=O)Nc2ccc(C)c(C)c2)cc1 |  | inactive: 14%
11 | O=C(Nc1ccc(S(=O)(=O)N2CCOCC2)cc1)c1cc(Cl)ccc1NS(=O)(=O)c1ccc(Cl)s1 |  | inactive: -4.72%
12 | N[C@@H](Cc1cc(I)c(O)c(I)c1)C(=O)O |  | inactive: 0.296%
13 | O=C(CSc1nc2c(c(=O)[nH]1)CCCC2)Nc1ccccc1C(F)(F)F |  | inactive: -25.7%
14 | CC(C)c1ccc(S(=O)(=O)c2cn(CC(=O)Nc3ccc(F)cc3)c3ccccc3c2=O)cc1 |  | inactive: -19.7%
15 | CCc1ccccc1NC(=O)Cn1c(=O)n(Cc2ccccc2)c(=O)c2c(C)c(C(=O)N(C)C)sc21 |  | inactive: -9.76%
16 | CCOc1ccc(NC(=O)Cn2c(=O)cc(C)c3c(C)nn(C)c32)cc1 |  | inactive: -24.1%
17 | Cc1csc2nc(-c3cccc(NS(C)(=O)=O)c3)cn12 |  | inactive: 15.1%
18 | Cc1ccccc1CN1c2ccccc2-c2nc(SCC(=O)c3ccc(Cl)cc3)ncc2S1(=O)=O |  | inactive: -14%
19 | COCCCNC(=O)CCCN1C(=O)CCn2nc(-c3cccn3C)cc21 |  | inactive: 8.8%
20 | Cc1ccc(-c2nc(C)c(CCNC(=O)C(=O)Nc3cc(C)ccc3C)s2)cc1 |  | inactive: 5.94%
21 | Cc1csc2nc(-c3ccc(NS(=O)(=O)c4cccc(F)c4)cc3)cn12 |  | inactive: -15.5%
22 | Cc1ccc(-c2n[nH]c3c2C(c2ccccc2Cl)N(c2ccc(C(=O)O)cc2)C3=O)cc1 (stereo not drawn) |  | inactive: -28.3%
23 | CCCOc1ccc(C2=NC(c3ccncc3)=Nc3ccc(C)cc3N2)cc1 |  | inactive: -24.6%
24 | Cc1oc2ccc(NS(=O)(=O)c3ccc(F)cc3)cc2c1C(=O)O |  | inactive: -4.52%
25 | CSc1ncc(Cl)c(C(=O)Nc2c(C(=O)Nc3cccc(C)c3)oc3ccccc23)n1 |  | inactive: -8.01%
26 | Cc1ccccc1-c1noc(-c2ccc(N3CCC(C)CC3)c([N+](=O)[O-])c2)n1 |  | inactive: -2.86%
27 | O=C(Nc1c(C(=O)c2ccccc2)oc2ccccc12)c1ccc(F)cc1 |  | inactive: -1.15%
28 | CC(C)c1nc2ccc(C(=O)NCCCN3CCN(c4ccccc4)CC3)cc2o1 |  | inactive: -28.2%

— PubChem BioAssay AID1508623 (National Center for Advancing Translational Sciences (NCATS), 2021)
